# Out of some 45,000 compounds screened, about 200 (0.44%) were called active. About 7% were inconclusive and are not listed. Calls follow the shape of the dose curve; as a rule, active = well fitted activation curve with a large enough effect; inconclusive = small, poorly fitted or top-dose-only effect; inactive = no such curve, though single readings can be large or run the other way. The list shows a part of the results.
# Assay: qHTS of TDP-43 Inhibitors: NCGC Sytravon Library Screen; also: 0% is about no effect; nearly all actives have a fitted effect of over 55% in size
# Conditions: yeast TDP-43 toxicity rescue, BacTiter-Glo growth, 24 h; series mostly up to 46.1 µM; growth rescue (activation): at the top concentration
# Outline: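 TDP-43-expressing yeast, pregrown in raffinose, seeded at OD600 0.02 in galactose medium with compound for 24 hr at 30 deg C. Growth read by BacTiter-Glo luminescence, so rescue of toxicity appears as activation.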
row,SMILES,growth rescue (activation)
1,O=C1CN(C(=O)CSc2ccc(-c3ccc(F)cc3)nn2)c2ccccc2N1,inactive: -13.6%
2,Cc1ccc(C(=O)OCC(=O)NC(C)c2ccccc2)s1 (configuration not stated),inactive: 13.8%
3,COc1ccc2c(c1)Cc1sc(NC(=O)c3ccc(Cl)cc3)nc1-2,inactive: 34%
4,CC(NC(=O)c1cccc2ccccc12)c1ccc2c(c1)CCCC2 (configuration not stated),inactive: 23.7%
5,CCC1(c2ccc(F)cc2)NC(=O)N(CC(=O)N2CCN(C(=O)c3ccco3)CC2)C1=O (configuration not stated),inactive: 14.6%
6,O=C(NNC1CC(=O)N(c2ccc3c(c2)OCCO3)C1=O)c1ccc(Cl)cc1 (configuration not stated),inactive: 8.56%
7,N#Cc1cccc(Nc2c3c(nc4ccccc24)CCC3)c1,inactive: 5.63%
8,Cc1cc(NC(=O)CSc2nnc(-c3ccccc3Cl)o2)no1,inactive: 7.18%
9,CCOc1ccccc1CNC(=O)CCCN1C(=O)COc2ccc(C)cc21,inactive: 26.4%
10,Cc1nnc(SCC(=O)NC2CCCC(C)C2C)n1N (configuration not stated),inactive: 0.329%
11,CCOc1ccc(NC(=O)c2ccc(NCC(=O)N3CCCCCC3)cc2)cc1,inactive: 1.73%
12,COC(=O)c1cccc(CSc2nnc(-c3ccco3)n2-c2ccccc2)c1,inactive: 25.2%
13,COc1ccccc1CC(=O)NC1CC(C)(C)NC(C)(C)C1,inactive: 33%
14,CCOc1ccc(NC(=S)N2CCC(N(C)CCN3CCOCC3)CC2)cc1,inactive: 1.42%
15,COc1ccc(CCNC(=O)C2CCN(c3nccc(C)n3)CC2)cc1,inactive: -5.93%
16,O=C(Nc1cccnc1Cl)c1cc(-c2ccc(O)cc2)on1,inactive: 16.2%
17,Cc1ccc2c(c1)C(O)(CC(=O)/C=C/C=C/c1ccccc1)C(=O)N2 (configuration not stated),inactive: 11.6%
18,Cc1cccc(OCCCSc2nc(-c3ccc(C(C)(C)C)cc3)nc3cc(=O)[nH]n23)c1C,inactive: 7.28%
19,CCn1cc(C(=O)NCCCN2CCCC2)c(=O)c2cc(S(=O)(=O)N3CCc4ccccc4C3)ccc21,inactive: -15%
20,Cc1ccc(-c2nc(-c3cccnc3)sc2CC(=O)Nc2ccc3nc(C)sc3c2)cc1,inactive: 4.39%
21,CCOc1ccc(NC(=O)Cn2sc3nc(C)cc(C)c3c2=O)cc1,inactive: 19.6%
22,Cc1ccccc1NC(=O)Cn1nnc2sc3c(c2c1=O)CC(C)(C)OC3,inactive: 13.3%

row,SMILES,growth rescue (activation)
1,CCN(CC(=O)NCc1cccs1)C(=O)c1ccc(S(=O)(=O)N(C)c2ccccc2)cc1,inactive: -4.68%
2,CCOC(=O)c1c(NC(=O)CSc2nncs2)sc(C)c1-c1ccccc1,inactive: 18.9%
3,Nc1c(C(=O)NCCc2ccccc2)sc2nc(N3CCOCC3)c3c(c12)CCCC3,inactive: 23.8%
4,CC(C)n1nnnc1SCC(=O)Nc1ccccc1F,inactive: 11.9%
5,FC(F)Oc1ccc(N=C2SCC3CCCCN23)cc1 (configuration not stated),inactive: 7.69%
6,CC(=O)c1cccc(CN2CCC(C(=O)Nc3ccc(-c4cccc(C)c4)cc3)CC2)c1,inactive: 19%
7,Cc1ccccc1NC(=O)CCOc1ccccc1,inactive: 31.2%
8,O=C(Cc1c[nH]c2ccccc12)Nc1ccccc1N1CCOCC1,inactive: -3.86%
9,CCCC(O)(CCC)C(=O)NN(C(=O)OC)c1ccccc1,inactive: 7.42%
10,Clc1ccc(CNC2CCN(Cc3ccccc3)CC2)cc1,inactive: 2.69%
11,CCOC(=O)C1(C)CCN1C(=O)CSc1ccccc1 (configuration not stated),inactive: 6.77%
12,COc1ccc(C2c3ccc(O)cc3Oc3ncn4nc(-c5ccccn5)nc4c32)cc1OC (configuration not stated),inactive: 22.1%
13,Cc1ccc(-c2nc(C)sc2CC(=O)NCc2ccco2)cc1,inactive: 14.5%
14,O=C(NCCSc1ccccc1)c1ccccc1Cl,inactive: 27.8%
15,COc1ccccc1N1C[C@@H]2C[C@@H](c3ccco3)N3CCC[C@@]23C1=O,inactive: 0.361%
16,COc1ccc(C(=O)OCC(=O)NCc2ccco2)cc1OC,inactive: 2.24%
17,Cc1ccc(-c2nc(S(=O)(=O)c3ccccc3)c(SCC(=O)NCC3CCCO3)o2)cc1 (configuration not stated),inactive: 10.5%
18,O=C(CN(Cc1ccc(Cl)cc1)C(=O)CNS(=O)(=O)c1ccc(F)cc1)NCC1CCCO1 (configuration not stated),inactive: -0.78%
19,Cc1ccccc1NC(=O)CC1SC(=Nc2ccc(O)cc2)NC1=O (configuration not stated),inactive: 8.67%
20,CC(=O)Nc1ccc(N(CC(=O)NCC2CCCO2)C(=O)CCC(=O)Nc2cc(C)on2)cc1 (configuration not stated),inactive: -9.3%
21,Cc1cc(C)cc(NC(=S)Nc2cccc3cnccc23)c1,inactive: 15.1%
22,COc1ccc(-c2csc(NC(=O)CSc3n[nH]c(C)n3)n2)cc1,inactive: -15%

row,SMILES,growth rescue (activation)
1,COC(=O)c1cc(NC(=O)CSc2nnc(N)s2)ccc1Cl,inactive: 7.4%
2,COCCCN1C(=O)C(=O)/C(=C(/O)c2ccc(C)cc2)C1/C=C/c1ccccc1 (configuration not stated),inactive: -6.76%
3,CC(=O)Nc1ccc(S(=O)(=O)NCc2ccncc2)cc1,inactive: -4.5%
4,Cc1ccc(/C(O)=C2/C(=O)C(=O)N(CC(=O)O)C2c2ccc([N+](=O)[O-])cc2)cc1 (configuration not stated),inactive: -6.54%
5,Nn1c(Cc2ccccc2F)nnc1SCC(=O)Nc1cccc(S(=O)(=O)NC2=NCCCCC2)c1,inactive: -2.21%
6,Cc1ccc(-c2noc(-c3nnn(CC(=O)Nc4cccc(C(F)(F)F)c4)c3N)n2)cc1,inactive: 1.87%
7,CC(C)CNC(=O)C1(C)CCCCCN1C(=O)c1cc2ccccc2s1 (configuration not stated),inactive: 29.8%
8,COc1cc2c(cc1NC(=S)Nc1ccccc1C)oc1ccccc12,inactive: 25.1%
9,O=C(O)CCC(=O)Nc1nc2nccc(-c3ccccc3)n2n1,inactive: 0.69%
10,Cc1ccc(S(=O)(=O)Nc2ccc3nc(-c4cccn4C)[nH]c3c2)cc1,inactive: 32.7%
11,O=[N+]([O-])c1cccc(/C([O-])=C(/C(=S)Nc2ccccc2)[n+]2ccccc2)c1,inactive: -8.49%
12,CCc1ccc(CN2CCC(n3nccc3NC(=O)Cc3ccccc3)CC2)o1,inactive: 29.2%
13,COC(=O)C1CSc2[nH]c(=O)sc2C1c1ccc(OC)c(OC)c1 (configuration not stated),inactive: 2.35%
14,COc1ccc(N/C=C\C(=O)c2ccc(C)cc2)cc1OC,inactive: -2.39%
15,O=C(Nc1cccc(-c2nc3ccccc3[nH]2)c1)c1c(F)cccc1F,inactive: -7.22%
16,O=C(NN=C1CCCC1)c1cc(-c2ccccc2)n[nH]1,inactive: -6.55%
17,O=C(Cn1cc(S(=O)(=O)N2CCN(c3ccccc3F)CC2)c2ccccc2c1=O)NCCCN1CCCCCC1,inactive: 2.48%
18,CC1CN(C(=O)COC(=O)c2c(Cl)cccc2Cl)CC(C)O1 (configuration not stated),inactive: 1.51%
19,CC(=O)Nc1ccc(C(=O)N2CCCCC2c2cc(C(=O)Nc3ccccc3Cl)no2)cc1 (configuration not stated),inactive: 11%
20,Cc1ccc(NC(=S)NNS(=O)(=O)c2ccc3ccccc3c2)cc1Cl,inactive: 19.7%
21,COc1ccc(NC(=O)c2ccc3nc(-c4ccccc4)c(-c4ccccc4)nc3c2)c(OC)c1,inactive: -2.8%
22,Cc1ccc(S(=O)(=O)NC(=O)Nc2ccc(F)c(F)c2)cc1,inactive: 12.2%

row,SMILES,growth rescue (activation)
1,COC(=O)c1cc(C(=O)c2cc(Br)ccc2O)coc1=N,inactive: 9.88%
2,CCOC(=O)C1CCN(C(=O)NS(=O)(=O)c2ccc(C)cc2)CC1,inactive: 8.69%
3,CCOc1cc(NC(=O)c2cccs2)c(OCC)cc1NC(=O)CCC(=O)NCCN1CCOCC1,inactive: 13.6%
4,Cc1[nH]c2ccccc2c1/C=N/NC(=O)Nc1ccccc1,inactive: 13.8%
5,CN(Cc1ccccc1)S(=O)(=O)c1ccc(Cl)c(C(=O)N2CCC(C(N)=O)CC2)c1,inactive: 0.075%
6,CCCC(=O)N1CCC1(C)C(=O)NCc1ccccc1SC (configuration not stated),inactive: -0.94%
7,COC(C(=O)NC1CC1)c1ccccc1 (configuration not stated),inactive: 2.63%
8,COCCNC(=O)c1ccccc1NC(=O)Cc1ccccc1,inactive: -16.4%
9,O=C(C[n+]1cc(-c2ccc(Cl)c(Cl)c2)n2c1CCC2)N1c2ccccc2Sc2ccccc21,inactive: -10%
10,C/C=C/c1ccc(OCCCCN2CCN(CC)CC2)c(OC)c1,inactive: -4.72%
11,O=C(NCc1ccc(F)cc1)C(c1ccc(F)cc1)N(C(=O)c1csnn1)C1CC1 (configuration not stated),inactive: 7.12%
12,COCCN(C(=S)Nc1ccc(Cl)cc1OC)C1CCN(C(C)=O)CC1,inactive: 8.07%
13,Cc1cc(C(=O)COC(=O)CNS(=O)(=O)c2ccc3ccccc3c2)c(C)n1-c1ccccc1,inactive: 8.87%
14,CCOc1ccc2nc(SCC(=O)NCC3CCCO3)sc2c1 (configuration not stated),inactive: 12%
15,COc1cccc2c1OC1(CCN(C(C)C)CC1)N1N=C(c3cccnc3)CC21 (configuration not stated),inactive: 2.55%
16,COc1cc(OC)cc(C(=O)Nc2ccccc2S(=O)(=O)N2CCCC2OC(C)=O)c1 (configuration not stated),inactive: 22%
17,CCCN(CCC)Cc1c(C(=O)N/N=C/C(C)=C\c2ccco2)nnn1-c1nonc1N,inactive: -11%
18,S=c1[nH]nc(Nc2cccc(Cl)c2)s1,inactive: 4.52%
19,CCC(CO)Nc1ncnc2onc(-c3ccc(F)cc3)c12 (configuration not stated),inactive: -6.04%
20,O=C1CC(c2ccccc2)CC(O)=C1C=NCCN1CCN(Cc2ccccc2)CC1 (configuration not stated),inactive: -16.6%
21,O=C1CCNc2c(Cl)cccc21,inactive: -7.73%
22,c1ccc(COc2ccccc2CNC23CC4CC(CC(C4)C2)C3)cc1,inactive: 19.2%

row,SMILES,growth rescue (activation)
1,CC1(C(=O)NS(=O)(=O)c2ccc(Cl)s2)CCN1C(=O)c1ccc(C2CCCCC2)cc1 (configuration not stated),inactive: 10.2%
2,Nc1nnc(SCC(=O)Nc2cc(S(=O)(=O)N3CCOCC3)ccc2Cl)s1,inactive: 7.77%
3,Cc1ccc2c(=O)c(CN3CCCCCC3)c(C)[nH]c2c1C,inactive: 7.82%
4,C=CCc1ccc(OCCOc2cccc3cccnc23)c(OC)c1,inactive: 20.2%
5,CC1(C)C(=O)OC(c2cccn2-c2ccc([N+](=O)[O-])cc2)C(C)(C)C1=O (configuration not stated),inactive: 16.4%
6,Cc1cc(=O)oc2c1c(C)nn2-c1cccc(Cl)c1,inactive: -7.11%
7,Cc1ccc(-c2nc(Cl)nc3ccccc23)cc1,inactive: 27.1%
8,O=[N+]([O-])c1cccc(C(=S)N2CCCC2)c1,inactive: -15.3%
9,CN(CC(=O)Nc1ccc(F)cc1)C(=O)Cn1cnc2ccc([N+](=O)[O-])cc2c1=O,inactive: -1.57%
10,O=C(O)c1ccccc1C(=O)N1CC=C(c2ccccc2)CC1,inactive: -5.09%
11,O=C(NC1CCCCC1)c1ccc2c(c1)N(Cc1ccc(F)cc1)C(=O)c1ccccc1S2(=O)=O,inactive: 1.45%
12,O=C(CSc1nnnn1-c1ccc(F)cc1)c1ccc(O)c(O)c1,inactive: -8.4%
13,COc1cccc(CNc2nc3cc(-c4ccc(OC)c(OC)c4)sc3c(=O)n2C)c1,inactive: 3.78%
14,Cn1c(SCC(=O)Nc2ccc3c(c2)OCCO3)nnc1C1CC1,inactive: 0.478%
15,COc1ccc(C(=O)NCC(=O)NCC(c2ccco2)N(C)C)cc1OC (configuration not stated),inactive: 1.55%
16,O=C1/C(=C/c2cccs2)SC(=S)N1N1CCOCC1,inactive: 5.2%
17,COc1ccccc1N(CC(O)Cn1c(C)nc2ccccc21)S(=O)(=O)c1ccccc1 (configuration not stated),inactive: 12.9%
18,CCCCCCCCNC(CO)(CO)CO,inactive: 0.18%
19,CC1(C)C(=O)N(c2ccccc2Cl)C(=O)c2ccccc21,inactive: 13.5%

# From PubChem BioAssay AID1347073 (National Center for Advancing Translational Sciences (NCATS), 2019)
